# Data taken from the supplement of paper PMC11417369.
# This is one part of the list.
# Test system: PfAP2-HC AP2 domain (GST-tagged)
# Assay: gcPBM binding intensity (ln(normalized median fluorescence intensity)); higher = stronger DNA binding
# Procedure, shortened: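 The highest Masliner-normalised natural-log median intensity across replicate spots of either probe orientation is reported as binding intensity. GST-tagged P. falciparum DNA-binding domains expressed in E. coli were applied for 1 h to an Agilent 4 × 180k array of primer-extended double-stranded 36-bp intergenic genomic probes plus negative controls, and bound protein was detected with Alexa488 anti-GST antibody and scanned at 488 nm.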
row,Sequence,gcPBM binding intensity (ln)
1,ATATTTATATATATGTGTACATATAGAAACATAAAA [XGTACX_site4355],9.81
2,TAAACATACATATACACACACACACCCACACCCACA [CACACA_site492],11.6
3,AAAAACAAACTGTGCATGCACCAAAAAAAAAAAAAA,9.62
4,TGTCCTTATGGGCACACACACATATAAGAAATTTAA [CACACA_site3187],10
5,TTTTTTTTTTTAATTTGTACGAATCTTTTTATTTTA [XGTACX_site4516],9.73
6,ACCCTCATATTATAGACACACACAAAAAAAATAAAA [CACACA_site7941],10.1
7,AGAAATGAAATATACACACATACATATATACATATA [CACACA_site4033],10.3
8,TAAATACACCCTAGACGTACATAAAAATTTAGTATG [XGTACX_site2512],9.78
9,ATTAATAATGAGTTATGTACATACATATTTTAAGAT [XGTACX_site7543],9.72
10,TATCGAGCACGGCGTGTGGAGTTACAAAGAGGAGAA [CACACA_negctrl_site40],10.1
11,GCCAATAAAGATGTGGTGCATTATATATATATATAT,9.64
12,AAATGTATAATATTTTCACACACAAGAAAAAAGAAA [CACACA_site9195],10
13,ATTTTTTTATAAAATTTTTATATATTATATAAATAT [GTGCAC_negctrl_site163],9.47
14,TAAAAATAGTATACAACACACGAGGGAAAATAAAGT [CACACA_site3837],10.3
15,AGAATATTTAATTCAACACACATACATATTTATTAA [CACACA_site5318],9.81
16,TATTGTATATACTATACACACACATACATACATACA [CACACA_site8172],10.3
17,ATATATTTATATAAATGTACATACAGCACATTTATA [XGTACX_site4725],9.51
18,CAAATATACATATGTAGTACATGTTGTAGATAATTT [XGTACX_site2790],9.88
19,GGATAATATATTAGAACACACATATAGATGTAAAAA [CACACA_site6229],9.96
20,GAAGCCCTATGAAAAGTGCGGTTCATGAACAAAGAA [GTGCAC_site9828],9.86
21,TACTTTATATAAAGATCAAAAAATAAATAATTATAA [TGCATGCA_negctrl_site446],9.33
22,TTATATTATACATACACACCCATATAATATGTTTTT [CACACA_site4636],9.88
23,TCTTATGAATATCCCCGTACACATATATTTCTTATA [XGTACX_site6877],9.82

row,Sequence,gcPBM binding intensity (ln)
1,TTGTTTTTGTTCTTGGGTACTTAAATTATAAATGAT [XGTACX_site113],9.64
2,AGCTACACACCACAATGTACATAAATATATATGTGA [XGTACX_site1483],9.73
3,TATTTGTAAATCGATACACACATATAGATTAATATA [CACACA_site6237],9.7
4,TTTGAATCCTTATATACACACATTATAAAATATTAT [CACACA_site6406],9.7
5,TAAAATGCAATCTGAACACACATATTTTTTTAATAT [CACACA_site6922],9.73
6,TACATCATACGAACAGTGCATATTATTATTGTTCTG,9.67
7,ATGGATTATACGTGCACACATATATACAAATAAATA [CACACA_site640],9.81
8,ACCATTTGTAGGTAAACACACATTATTATTAATATC [CACACA_site2635],9.8
9,ATTTTATATCTGGATAGTACTTTAATATTTCAAATG [XGTACX_site7304],9.51
10,GTATTTATAAATTATAGTACTTTGCGTATCATATAT [XGTACX_site7358],9.64
11,GGATATTCATTAACCACACACACAAAAAAAATAAAA [CACACA_site3800],11.2
12,TATATATCATATGATACATGCAACAAAATGCATAAT [TGCATGCA_site205],9.61
13,TACTTACCAAAATACACACACACACTAGATATATAA [CACACA_site5096],11.3
14,ATGTATATTACTCATTGTACTTATATTTTCTTATTA [XGTACX_site8897],9.84
15,TCATAGTATAGACACACACACACACGCATATAAATA [CACACA_site6915],10.5
16,TCTTTGTAAATTTCTTGTACGTAAATTTTTTTTAGG [XGTACX_site7062],9.52
17,TATTTTACATCTTCTCACATTTTATCACTTTTTAAA [CACACA_negctrl_site330],9.76
18,TGTATATATAAACATGCACACGTGGTTGTATATATA [CACACA_site9078],9.68
19,AGAATTCGTTTAAAAAGTACATTCAATTTAATAATG [XGTACX_site6603],9.39
20,AATATTTTAAAAAAAAGTACATTATATATATATGTT [XGTACX_site8073],9.38
21,TGTAGTCTGGAGAAGAGTACACAGTATCTGGTAACA [XGTACX_site2038],9.68
22,TAGTATTAAAATATTTGTACTTATATGTATTATATA [XGTACX_site538],9.59
23,AAAGAAATGAAATATACACACATACATAAATACATA [CACACA_site6081],10.3

row,Sequence,gcPBM binding intensity (ln)
1,AATTATATATTATAATGTACATATATATAACTATAC [XGTACX_site1865],9.67
2,ATAAAGGAAATTACAAGTACAAATAAGATAAAATAA [XGTACX_site4514],9.76
3,ATATATTTAAACTACACACGCATATCTTAGAAATAA [CACACA_site1272],9.78
4,TATAAAAAAAGAGGAGGGATGGTATACTTGTGGTTT [TGCATGCA_negctrl_site49],9.97
5,TTTTTTTTATGGTACACACACGCGTATGGTTGCACG [CACACA_site1877],9.9
6,TTATTTTTGTTCATAGTGCATAGAATTTATACATAT,9.74
7,ATAGACAGCGCACAAACACACAAACACAGACCCCCA [CACACA_site4409],10.2
8,ATTTATTTATTGGCACGTACAAATTTGTGTTTTCCA [XGTACX_site6978],9.72
9,TTGTAAATTTCTGGTTATATATTTTATGTATATGTT [CACACA_negctrl_site1443],9.81
10,TTTTTTTCTTTTCAAACACACAATTGGTATATATCA [CACACA_site7542],9.72
11,ATATATATATATATATGTACTGAATAAAGAACAAAA [XGTACX_site5400],9.8
12,CGTATATGACAAAAGCGTACGCATCAGCAGAAAAAT [XGTACX_site6248],9.66
13,AGAATATGTTAAAAAAGTACATACTCTTTATATACG [XGTACX_site79],9.58
14,TAAAAAAAAACATATACACACAAAAACGTACACATA [CACACA_site1354],10.1
15,TTTTTTTCTCACAATCGTACATAAATACATATATAT [XGTACX_site3150],9.91
16,TAATGTACATAAACCGCACACATATAAAAAAATAAA [CACACA_site2851],9.98
17,TATATTTTTTAAACCACACACAATATAGAGTAGAAT [CACACA_site613],10.2
18,AGGGGAAATAAAATATAAATTATCATATATATATAT [XGTACX_negctrl_site366],9.62
19,AGAAATAAGAAATATACACACATATAAATATAAATA [CACACA_site7342],10.2
20,TTTTAAAATTATTAGGTGCATATTTATTCTATATTT,9.63
21,TGTTTTTTTATTTTCACACATAATCCAATTATACAT [CACACA_site6070],9.88
22,TGCAATGGAGCATAAAGTACATATAATTGTATTTTT [XGTACX_site7349],9.55
23,AATACAGAGGAAAATACACACGTATATATATAAATA [CACACA_site9125],9.99

row,Sequence,gcPBM binding intensity (ln)
1,TAGAATAATCCTTACACACACACACCCACGAATAAA [CACACA_site483],10.5
2,ATCAACAAAACATACACACACATATATATATATATA [CACACA_site2989],10.3
3,TTTCTATATCTATTTAATTAACTTTTTATACTGATT [GTGCAC_negctrl_site415],9.75
4,GCATCTCATTTGTGATGTACTATATTATCCGTTTTT [XGTACX_site7576],9.71
5,CACATAAAAAAATAAACACACATATGTATTTATATA [CACACA_site5718],9.78
6,CATATCATTGATTATAGTACACATACCATTTTTTAT [XGTACX_site6572],9.81
7,AATAAAAATAATATAGTGCATAATATAAGGAAAAAA,9.87
8,TTAAAAAAATATAGAGCATGCTAAAAATAAAAAAAT [TGCATGCA_site794],10.2
9,CAACACTTAGATTTTAAGTTCACTGGTTAATATATA [CACACA_negctrl_site707],9.48
10,AGGTCTATATAATAAGTGCATTTTTTTTTTTTTTTT [GTGCAC_site9664],9.49
11,GTTATACTCATCAACACACACATACAACGTGGTGTA [CACACA_site4789],10.2
12,AGTAATATAATATAAGCACACGTGTATTTATTTAGG [CACACA_site7921],9.88
13,AAAAAAAAAAAAAAATACAAGCACATTTATATAAGC [GTGCAC_negctrl_site695],9.77
14,AAATACATTAAAATGACATGCAGATATATATCAAAA [TGCATGCA_site477],9.85
15,TATATATCAATATTTACACACATGCGCCCACATAAA [CACACA_site7185],10.1
16,TATATGTTTGAATATACACACAACATATTTATATAT [CACACA_site7832],9.74
17,AAAAAAAAAAAATATGTACACACATATATAATACAT [CACACA_site8473],9.99
18,TTTTTTGTTAAAAGAGTGCAAATTTTTAAAGATTTG [GTGCAC_site9502],9.21
19,TTTTTTTCTTTTGGGAGTACCAACATTTTCACATAT [XGTACX_site1371],9.85
20,CTATGCCCCATATAAACACACAAATAAAAAGAATAT [CACACA_site2681],9.89
21,AAAAAAAAAAGACACACACACACAAATACATACACA [CACACA_site6472],10.8
